{"source": "paper PMC6032326", "about": "“Connexin43 Carboxyl-Terminal Domain Directly Interacts with β-Catenin” (International Journal of Molecular Sciences, 2018)", "proteins": {"B1": {"name": "Connexin43 carboxyl-terminal domain ([…]) (domain or fragment)", "chain": "not shown", "notes": "Connexin43 (Cx43), rat, carboxyl-terminal domain, […], the construct of the SPR study; Used both immobilised on the chip and as analyte (positive control); also called Cx43CT ([…]); Cx43CT; source: bacterial expression vector pGEX-6P-2, expressed and purified in 1x PBS as previously described"}}, "molecular_target": "the molecule itself", "assay": "SPR; Biacore 1000, 25 °C; Cx43CT (S255–I382) immobilised on a CM5 chip by amine coupling; 213 mM phosphate buffer pH 7.1, 5 μL/min; 5 μL injections of β-catenin CT (4 μM) or Cx43CT (10 μM)"}
{"protein": "B1", "values": [{"measurement": "binding result", "result": "binds"}]}
